Read-outs that look alike come from different tables or passages of the source. A value given as a limit tells only on which side of the number the result lay.

The subject of data set [1] is NCI-H322M. In words: cells. The conditions noted are these: Homo sapiens, 48 h; for GI50: read-out: Median Growth Inhibitory Concentration (GI50); for CC50: read-out: Median Lethal Concentration (LC50).
In data set [2] the test system is NCI-H322M. The conditions noted are these: for GI50: read-out: Median Growth Inhibitory Concentration (GI50), Non-Small Cell Lung Cancer, 48 hours.

In the case of `COc1cc(/C=C/C(=O)CC(=O)/C=C/c2ccc(O)c(OC)c2)ccc1O` [Curcumin], in the data set with NCI-H322M [1], the GI50 is 15.8 µM and the CC50 is 63.1 µM. For `O=C(C=Cc1ccc(F)cc1F)C=Cc1ccc(F)cc1F` [EF9, 1,5-Bis(2,4-difluorophenyl)penta-1,4-dien-3-one], in that order: 16.7 µM and 55.6 µM. As for “3,5-Bis(2-hydroxybenzylidene)-sulfone [EF11]”, the GI50 in the data set with NCI-H322M [2] is 36.5 µM. `OC(CCc1ccc(F)cc1F)CCc1ccc(F)cc1F` [EF19, 1,5-Bis(2,4-difluorophenyl)-pentan-3-ol]: in the data set on NCI-H322M [1], the GI50 came to 20.3 µM and the CC50 stood at 59.2 µM. In the case of `O=C1C(=Cc2ccccc2O)CCCC1=Cc1ccccc1O` [EF4, 2,6Bis(2-hydroxybenzylidene)cyclohexanone], in the data set on NCI-H322M [1], the GI50 was 2.7 µM and the CC50 was 42.3 µM. For the compound `CC1(/C=C/c2ccccc2O)C=Cc2ccccc2O1` (centres unmarked) [EF7], in the data set with NCI-H322M [1], the GI50 was determined as 16.9 µM and the CC50 was 56 µM.

For `CC(=O)O.O=C1C(=Cc2ccccc2F)CNCC1=Cc1ccccc1F` [EF24, 3,5-Bis-(2-fluorobenzylidene)-piperidin-4-one-acetate], in the data set with NCI-H322M [1], the GI50 was 1.4 µM and the CC50 is 17 µM. In the case of `N.N.[Cl][Pt][Cl]` [Cisplatin, reference compound], in the data set with NCI-H322M [2], the GI50 is 1.3 µM. Take `O=C1C(=Cc2ccccc2O)COCC1=Cc1ccccc1O` [EF25, 3,5-Bis(2-hyrdoxybenzylidene)tetrahydro4-H-pyran4-one]: the GI50 in the data set on NCI-H322M [2] worked out at 1.9 µM. In addition, in the data set with NCI-H322M [2] (read-out: Median Lethal Concentration (LC50), Non-Small Cell Lung Cancer, 48 hours, SRB assay), the CC50 was 32.2 µM. For `C(=C\c1ccccc1)/S/C=C/c1ccccc1` [EF15], the GI50 with NCI-H322M [2] was over 100 µM.
